Laboratory results taken from the RNAGym collection of RNA variant scans (doi:10.7554/elife.90254).
The source gives no read counts; variants with many changes may rest on few reads.

B1: OR4K15 (parent)
chain: GUUAACGGUCAUAGGCCAUGGAAACUAGGAGCACCAUUUCGCUGCCAGUGAAGAAAUGAACAAAGAAAAUCUGGGCCAGGCAGGCAUCAAAAGAAAUAGUCUUGCGCUCAACCAGAAAGUCUGUAAUCAUUUUAAGGGUA

Variants of: B1
Assay: self-cleavage, relative activity (ratio to wild type); higher = more cleavage; in vitro, sequencing; the parent is a self-cleaving ribozyme

Variant	self-cleavage
U39C A47G A59G A60G A78U A135G	0.43
U39C A89U A110C	0.24
U43A A126G U127C	1.22
U43A A54G A78U	0.65
U39A A86G U97C U108C	0.02
U38C U43C C76G U124C U131A	0.06
U39C G83A A90G G99A	0.83
U38C U87A U139C	1.99
G41C A54G U87C U131C	0.88
U43A A90G A95G	2.36
U39A C76A G84U	0.03
C40A A56G U139C	0.64
U43A A52G A78G U87A	0.31
G41A U49C U87A A91G A118G	0.64
U43A A63G A86G A125G U131C	0.72
U43A A89U A92G A135U	1.59
U39C A98G G99C A116G A126G	0.54
U39C A64G U72C A125G	0.09
U39C G65U U100A A118G	0.46
U39A G50U A126G	0.96
U43A A82G A90C U127A	0.33
U38C A126U A129U	0.39
U39C U108C U133C	0.01
U39C C45G A56G A59G A129C	0.98

Variant	self-cleavage
U38C U49C U57C A59U A66G	1.81
U43A A92G A111G U124C	0.01
U39C A51U A55G G137U	1.46
U39C A89U U139A	1.6
C40A A52G A95G U139C	1.82
U39A U70A A111G	0.03
U43A A54C U100C	2.24
U43A A55G A62G U122C	1.71
G41A U43C A92U	0.63
U39C A91G A135G	1.53
C42G U57C A110G	0.09
U39A U43A A54U A67G A114G U127C	0.15
U38C G84U A95G U108C U131C	0
U39C U49C G53A A68G	1.21
U43A A118U U127C	0.51
G41A A51U A118G U132C	0.92
U39C A52G U103C	0.65
U39A A91G A114C	0
U43A A96G U130C	0.43
U38G U49C A94U	1.23
U39C A47G A82C U120C G136A	0.04
U39C A96U U122A	1.2
C40U A62U A67G A116G A118U	0.11
U39A A55U U132C	2.45

Variant	self-cleavage
U38C U100C A111G U127A G136A	0.01
U39A A89C A94G	2.4
U39C A60G A78U	0.18
U39C A51G A52G A66G	1.45
U38C U43C U72C A95G	0.54
U38C U39A U70A A94G U133C A140G	1.23
U39A A94U U102A U130C	0.39
U39A A67G A140G	1.68
C40G U100C A117G	2.13
U38C C42U A82G	0.61
U43A A78G G123A U131C	0.03
U39C U43A A94G U132C	1.16
U38C U43G A52G U122C	0.55
U39A A52G A111G	0.02
U39A A52G U72C A126G U130C	0.11
U39A A98G A118G	0.41
U43A A66U A78U	0.51
U39C A86U A92G	0.62
U39C A62G A117G U127C	1.33
U39C U72A A117G	0.16
U39C A47U A62G A92G A94G	0.39
U39A U57A A64G	1.07
U43A A62G A66G A118G	0.69
U39A A59G A86G U97C	0.57

Variant	self-cleavage
C42U A68U C109U	0.29
U39G A60G A78G U122C	0.12
C40A A110G U122C	0.13
U39C A66G A86G U103G	0.01
U39A A51G U108C	0.03
U39G U43C A110G A114G A118U	0.02
U39A A66G U72C U100C	0.54
U39C U70C C77U	1.96
U38G A67G A78U U102C A118G	1.06
G41A U103C C121U	1.46
U43A A52G A95G	1.87
C42G U49C A51U A86U	1.15
U39C A95G A110G A116G	0.16
U39C A90G G106A	0.01
U39A A52G U70C U108C	0
C40U G53C G93A	1.61
C40U A59U U87C U102C	1.85
U39A U87C A129U	0.7
U38C U39A U43A A59G A92G	1.24
U43A A89U U103C G115A U132C	0.04
U39C A82G A86G A91G	0.04
U39A A55G A114G	0.24
U39C A52G A55G	1
U39A A89G A95G	2.68

Variant	self-cleavage
U39A A66G G83A U103C	0.28
U38C U87C A90G	0.37
U43A A52G G58A U127A A135C	1.82
U43A A90U A111U	0.04
U39C A78C A86U	0.61
U39A G50C A51G U102C	1.25
C42U A96U U122A	2.08
U38C U49C U108C	0.02
U39C U43C A47G A96U A117G	1.37
U39C A63G A117G	1.59
U38G U102C U127C U132C	1.28
U39C A55G U70C A82G U130C	0.26
U39C U87A A117G	0.42
U39A A92G U122C	1.93
U43A A51G A68G	0.86
U39A A54U A110U	1.52
U39C A60G C112A A126G	0
U39A U43C A126G	0.8
C40U U43A U70C A95G G115U	0.08
U39C A63G U103C U108C	0.01
C40U A86G U87C	0.55
U39A A69G U87C U130C	1.55
U39C A51G A125G	0.72
C40U A55G U122C U127G	1.2

Variant	self-cleavage
U39C A55G U72A A111G	0
U43A A55G U127C	0.41
C40U A98G U127A	1.19
U39C A78G A96U A116G	0.12
G41A A52G A56U A62G A82G C101A A110U	0.05
U38C U72A U131C	0.25
U39C A126U U132C	1.58
U43A A116G U122C	0.33
U38C A116G A135G	1.05
U39C A51C A55G	0.7
U39A A51U A111G U130C	0.01
U43A G53U A68G A82U U87C U108A	0.02
U39A A82G C128U	0.27
U39C U43C A68C A86U	1.16
U43A A63G A94G	0.69
U39C A56G A110G	0.22
C40U A62G U131C	1.84
U38G A117G A126U U133G	2.03
U38C U43A U57C A64U A117U	0.51
U43A A59G A63G U70A A134G	0.84
U38C G73A A98U	0.15
U39A U57G A60C U103C	1.45
U38G A66G A116G	1.21
U38C U43C A78G U97C U132C	0.15

Variant	self-cleavage
U38C U70A U87C	0.72
U39C A56G U57A A92G	1.41
U39A A51G A82G U87C	0.7
U39A A59G A140U	2
U39A A69G A111U A126U	0.03
U43A A69U A90G A118G	0.57
U39C A47G A56G	0.58
G41C A52G A68C U108C	0.05
U39A A66G A68U G99A U124C	0.54
U38G A51G A68G U124C	0.8
U39C A68U U70A A117U	0.85
U39A A69G U70C	0.73
U38C U102G U130C A140G	0.32
U39C A63G U108C	0.01
U39C A62U A68G A98G	0.4
U39A A64U U130C	1.8
U39C G74A U130C	0.11
U39A G48A U122C	0.17
U43A A69G A92G A118G	0.67
C42G A51U A95G A96G	0.53
U39C U122C U131C	0.48
U39C A67G A117G U132A	1.85
U39C A64U A82U A91G	0.17
